Reference: the supplement of paper PMC12645437, “Orthogonal IMiD-Degron Pairs Induce Selective Protein Degradation in Cells” (ACS Chemical Biology, 2025)
This is one part of the list.

B1: Q9UKT9 (peptide)
chain: FDCNQCGRDFTQKGNLLRHIKL
B2: Q9UKT9 (peptide)
chain: FDCEQCGAKFTQKGNLLRHIKL
B3: Q9UKT9 (peptide)
chain: FNCNQCGAIFTQKGNLLRHIKL
B4: Q9UKT9 (peptide)
chain: FRCEVCGAMFTQKGNLLRHIKL
B5: Q9UKT9 (peptide)
chain: LECNQCGFTCTQKGNLLRHIKL
B6: Q9UKT9 (peptide)
chain: FMCEICGAPFTQKGNLLRHIKL
B7: Q9UKT9 (peptide)
chain: FVCNQCGACFTQKGNLLRHIKL
B8: Q9UKT9 (peptide)
chain: FNCNQCGRTFTQKGNLLRHIKL
B9: Q9UKT9 (peptide)
chain: FNCDVCGADFTQKGNLLRHIKL
B10: Q9UKT9 (peptide)
chain: LWCEICGFRCTQKGNLLRHIKL
B11: Q9UKT9 (peptide)
chain: FYCDICGAHFTQKGNLLRHIKL
B12: Q9UKT9 (peptide)
chain: FDCPVCGAIFTQKGNLLRHIKL
B13: Q9UKT9 (peptide)
chain: FTCNQCGRSFTQKGNLLRHIKL
B14: Q9UKT9 (peptide)
chain: FRCPICGAWFTQKGNLLRHIKL
B15: Q9UKT9 (peptide)
chain: FQCEVCGAIFTQKGNLLRHIKL
B16: Q9UKT9 (peptide)
chain: FWCEQCGAGFTQKGNLLRHIKL
B17: Q9UKT9 (peptide)
chain: FECNQCGHVFTQKGNLLRHIKL
B18: Q9UKT9 (peptide)
chain: FQCNQCGAGFTQKGNLLRHIKL
B19: Q9UKT9 (peptide)
chain: FVCEICGRIFTQKGNLLRHIKL
B20: Q9UKT9 (peptide)
chain: FCCPQCGANFTQKGNLLRHIKL
B21: Q9UKT9 (peptide)
chain: FMCPQCGACFTQKGNLLRHIKL
B22: Q9UKT9 (peptide)
chain: FTCSVCGHWFTQKGNLLRHIKL
B23: Q9UKT9 (peptide)
chain: FQCPQCGACFTQKGNLLRHIKL
B24: Q9UKT9 (peptide)
chain: FHCEICGRIFTQKGNLLRHIKL
B25: Q9UKT9 (peptide)
chain: FHCPICGHGFTQKGNLLRHIKL
B26: Q9UKT9 (peptide)
chain: LNCPICGFMCTQKGNLLRHIKL
B27: Q9UKT9 (peptide)
chain: FSCPVCGANFTQKGNLLRHIKL
B28: Q9UKT9 (peptide)
chain: FHCEICGHAFTQKGNLLRHIKL
B29: Q9UKT9 (peptide)
chain: LNCPICGFWCTQKGNLLRHIKL
B30: Q9UKT9 (peptide)
chain: FYCNQCGALFTQKGNLLRHIKL
B31: Q9UKT9 (peptide)
chain: FRCDICGAMFTQKGNLLRHIKL
B32: Q9UKT9 (peptide)
chain: LWCNQCGFHCTQKGNLLRHIKL
B33: Q9UKT9 (peptide)
chain: FDCEICGAYFTQKGNLLRHIKL
B34: Q9UKT9 (peptide)
chain: FECPVCGANFTQKGNLLRHIKL
B35: Q9UKT9 (peptide)
chain: FHCDICGAPFTQKGNLLRHIKL
B36: Q9UKT9 (peptide)
chain: FDCEVCGADFTQKGNLLRHIKL
B37: Q9UKT9 (peptide)
chain: FLCEQCGAHFTQKGNLLRHIKL
B38: Q9UKT9 (peptide)
chain: FHCEICGRKFTQKGNLLRHIKL
B39: Q9UKT9 (peptide)
chain: FSCDICGAYFTQKGNLLRHIKL
B40: Q9UKT9 (peptide)
chain: FRCDQCGASFTQKGNLLRHIKL
B41: Q9UKT9 (peptide)
chain: FSCSVCGHYFTQKGNLLRHIKL
B42: Q9UKT9 (peptide)
chain: FGCNVCGARFTQKGNLLRHIKL
B43: Q9UKT9 (peptide)
chain: FDCNQCGACFTQKGNLLRHIKL
B44: Q9UKT9 (peptide)
chain: FSCPICGRIFTQKGNLLRHIKL
B45: Q9UKT9 (peptide)
chain: LVCEICGFRCTQKGNLLRHIKL
B46: Q9UKT9 (peptide)
chain: FTCNQCGRDFTQKGNLLRHIKL
B47: Q9UKT9 (peptide)
chain: FGCEVCGAQFTQKGNLLRHIKL
B48: Q9UKT9 (peptide)
chain: FNCPICGRKFTQKGNLLRHIKL
B49: Q9UKT9 (peptide)
chain: FICEQCGADFTQKGNLLRHIKL
B50: Q9UKT9 (peptide)
chain: FACPICGASFTQKGNLLRHIKL

Target: no compound (DMSO)
Assay: log2 fold change of degron read counts, EGFP-low vs EGFP+ sorted cells; higher = lower degron-EGFP level without compound (poor expression or instability)
Conditions: compound: DMSO control; 18 h
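Further: jurkat cells carrying a lentiviral library of mutant zinc finger degrons fused to EGFP plus mCherry, mCherry+ cells FACS sorted, degron abundance counted by next-generation sequencing.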

| Sequence | log2 fold change of degron read counts |
| --- | --- |
| B1 | 0.336 |
| B2 | -1.26 |
| B3 | -0.217 |
| B4 | -1.29 |
| B5 | -0.86 |
| B6 | -0.39 |
| B7 | -1.24 |
| B8 | -0.483 |
| B9 | -1.49 |
| B10 | 1.34 |
| B11 | -0.467 |
| B12 | 0.277 |
| B13 | -0.834 |
| B14 | 0.851 |
| B15 | -1.75 |
| B16 | -0.428 |
| B17 | -1.2 |
| B18 | -1.09 |
| B19 | -0.428 |
| B20 | -0.181 |
| B21 | 0.164 |
| B22 | -0.0063 |
| B23 | -0.564 |
| B24 | -0.445 |
| B25 | 0.00505 |

| Sequence | log2 fold change of degron read counts |
| --- | --- |
| B26 | 1.07 |
| B27 | -0.362 |
| B28 | -1.46 |
| B29 | 1.74 |
| B30 | -0.313 |
| B31 | -1.15 |
| B32 | 2.2 |
| B33 | -0.576 |
| B34 | -0.772 |
| B35 | -0.96 |
| B36 | -1.18 |
| B37 | -1.54 |
| B38 | -2.08 |
| B39 | -1.02 |
| B40 | -2.21 |
| B41 | 0.256 |
| B42 | -0.826 |
| B43 | 0.149 |
| B44 | 0.275 |
| B45 | -0.388 |
| B46 | -1.32 |
| B47 | -1.23 |
| B48 | -1.29 |
| B49 | -1.99 |
| B50 | -0.276 |
